In the supplement of paper PMC6089552:
About 300 (9.4%) of roughly 3,200 compounds showed activity. This is a selection; strong and weak results do not stand in their true shares.

Tested on: A673/TR/shEF
Assay: cell viability (LOESS-normalised, relative to median of negative controls) (log2 ratio); higher = more viable cells (less compound effect), active = hit call of the paper (over 3 MAD below the median)
Conditions: treatment time: 72 h
Method in brief: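 Doxycycline, present or absent from 24 h before compounds, was used to induce EWS-FLI1 shRNA knockdown in A673/TR/shEF Ewing sarcoma cells at 1,500 per well in 384-well plates. Cells then received library compounds at two or more concentrations, or DMSO controls, for three days. Viability was measured by CellTiter-Glo luminescence on an Envision reader, and per-plate LOESS correction, division by the negative-control median and log2 transformation followed.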

[1] = 0.103 µM, library screen: screen3, EWS-FLI1 expression: high (no doxycycline)
[2] = 0.103 µM, library screen: screen3, EWS-FLI1 expression: low (doxycycline-induced shRNA knockdown)
[3] = 0.308 µM, library screen: screen3, EWS-FLI1 expression: high (no doxycycline)
[4] = 0.308 µM, library screen: screen3, EWS-FLI1 expression: low (doxycycline-induced shRNA knockdown)
[5] = 0.926 µM, library screen: screen3, EWS-FLI1 expression: high (no doxycycline)
[6] = 0.926 µM, library screen: screen3, EWS-FLI1 expression: low (doxycycline-induced shRNA knockdown)
[7] = 2.8 µM, library screen: screen3, EWS-FLI1 expression: high (no doxycycline)
[8] = 2.8 µM, library screen: screen3, EWS-FLI1 expression: low (doxycycline-induced shRNA knockdown)
[9] = 8.3 µM, library screen: screen3, EWS-FLI1 expression: high (no doxycycline)
[10] = 8.3 µM, library screen: screen3, EWS-FLI1 expression: low (doxycycline-induced shRNA knockdown)
[11] = 25 µM, library screen: screen3, EWS-FLI1 expression: high (no doxycycline)
[12] = 25 µM, library screen: screen3, EWS-FLI1 expression: low (doxycycline-induced shRNA knockdown)
[13] = 0.25 µM, library screen: screen1, EWS-FLI1 expression: high (no doxycycline)
[14] = 0.25 µM, library screen: screen1, EWS-FLI1 expression: low (doxycycline-induced shRNA knockdown)
[15] = 0.25 µM, library screen: screen2, EWS-FLI1 expression: high (no doxycycline)
[16] = 0.25 µM, library screen: screen2, EWS-FLI1 expression: low (doxycycline-induced shRNA knockdown)
[17] = 2.5 µM, library screen: screen1, EWS-FLI1 expression: high (no doxycycline)
[18] = 2.5 µM, library screen: screen1, EWS-FLI1 expression: low (doxycycline-induced shRNA knockdown)
[19] = 2.5 µM, library screen: screen2, EWS-FLI1 expression: high (no doxycycline)
[20] = 2.5 µM, library screen: screen2, EWS-FLI1 expression: low (doxycycline-induced shRNA knockdown)

Measured: cell viability (log2)

C[C@]12C=CC(=O)N[C@@H]1CC[C@@H]1[C@@H]2CC[C@]2(C)[C@@H](C(=O)Nc3cc(C(F)(F)F)ccc3C(F)(F)F)CC[C@@H]12
inactive: [1] 0.0707 | [2] 0.0111 | [3] -0.025 | [4] 0.08 | [5] 0.071 | [6] 0.105 | [7] 0.0417 | [8] 0.0227 | [9] 0.0762 | [10] 0.023 | [11] 0.139 | [12] 0.0563

Clc1cccc(Cl)c1NC1=NCCN1
inactive: [1] 0.051 | [2] 0.0573 | [13] 0.0339 | [14] 0.0998 | [15] 0.154 | [16] 0.0974 | [3] 0.063 | [4] 0.0667 | [5] 0.0404 | [6] 0.0791 | [17] 0.0959 | [18] 0.141 | [19] 0.124 | [20] 0.0925 | [7] 0.0651 | [8] 0.0423 | [9] 0.0821 | [10] -0.0179 | [11] 0.00253 | [12] 0.054

CCN(CC)C(C)CN1c2ccccc2Sc2ccccc21 (stereo unspecified)
inactive: [13] 0.13 | [14] 0.0955 | [17] 0.209 | [18] 0.294

CCCNC(=O)NS(=O)(=O)c1ccc(Cl)cc1
inactive: [13] 0.113 | [14] 0.0415 | [15] 0.233 | [16] 0.0846 | [17] 0.176 | [18] 0.0747 | [19] 0.0486 | [20] 0.0715

C=CC(C)(C)c1c2c(c(O)c3c(=O)c4ccc(O)c(O)c4oc13)C=CC(C)(C)O2
inactive: [13] -0.0194 | [14] 0.182 | [17] -0.0746 | [18] 0.15

COc1cc(CN2CCN(Cc3cccc(F)c3)CC2)cc2c1OCO2
inactive: [13] 0.0873 | [14] 0.0661 | [17] 0.0312 | [18] 0.0566

CNCCc1ccccn1
inactive: [13] 0.113 | [14] 0.0801 | [17] 0.145 | [18] 0.116

CCOC(=O)[C@H]1O[C@@H]1C(=O)N[C@@H](CC(C)C)C(=O)NCCC(C)C
inactive: [15] 0.0895 | [16] 0.083 | [19] 0.149 | [20] 0.0496

Cn1cc[nH]c1=S
inactive: [1] 0.0612 | [2] 0.0479 | [13] 0.118 | [14] 0.0971 | [3] 0.131 | [4] 0.0443 | [5] 0.019 | [6] 0.0538 | [17] 0.173 | [18] 0.18 | [7] -0.00547 | [8] 0.0117 | [9] 0.0311 | [10] 0.0678 | [11] 0.0326 | [12] 0.0833

NC(Cn1ccc(=O)c(O)c1)C(=O)O (stereo unspecified)
inactive: [13] 0.0522 | [14] -0.0418 | [17] 0.144 | [18] 0.00731

CC1=NS(=O)(=O)c2cc(Cl)ccc2N1
inactive: [15] 0.0993 | [16] 0.0504 | [19] 0.157 | [20] 0.101

CC(C)NCC(O)COc1ccc(CC(N)=O)cc1 (stereo unspecified)
inactive: [13] 0.112 | [14] -0.13 | [15] 0.0893 | [16] 0.153 | [17] 0.197 | [18] 0.0109 | [19] 0.101 | [20] 0.141

O=C1O[C@H]([C@@H](O)CO)C([O-])=C1[O-].[Ca+2]
inactive: [13] 0.0808 | [14] 0.0736 | [17] 0.131 | [18] 0.127

CC1(C)C[C@@]23C(=O)CC[C@@H](O)C2(C)CC[C@H]13 (stereo partly specified)
inactive: [13] 0.0615 | [14] -0.0504 | [17] 0.0572 | [18] 0.0807

COC(=O)C[C@H]1C(C)(C)[C@H](O)[C@@H]2CC3=C4CC(O)O[C@@H](c5ccoc5)[C@]4(C)CCC3[C@@]1(C)C2=O (stereo partly specified)
inactive: [13] 0.0798 | [14] 0.183 | [17] 0.141 | [18] 0.127

Oc1cc2c(cc1O)C(c1ccccc1)CNCC2 (stereo unspecified)
inactive: [15] 0.125 | [16] 0.0728 | [19] 0.12 | [20] 0.132

CN1CCN(CC(=O)N2c3ccccc3C(=O)Nc3cccnc32)CC1
inactive: [13] 0.0285 | [14] 0.0627 | [15] 0.163 | [16] 0.0865 | [17] 0.103 | [18] 0.0686 | [19] 0.175 | [20] 0.0449

CC1CCN(CC[C@H]2CCCN2S(=O)(=O)c2cccc(O)c2)CC1
inactive: [15] 0.126 | [16] 0.0228 | [19] 0.14 | [20] 0.043

CC(=O)OC12CCCC(C)(CCC3C1CC3(C)C)C2 (stereo unspecified)
inactive: [13] 0.0248 | [14] -0.0723 | [17] 0.116 | [18] -0.0213

NC[C@@H]1O[C@H](C23CC4CC(CC(C4)C2)C3)Cc2c1ccc(O)c2O
inactive: [15] 0.195 | [16] 0.177 | [19] 0.164 | [20] 0.0586

COc1cc(C(O)CO)ccc1O (stereo unspecified)
inactive: [15] 0.211 | [16] 0.11 | [19] 0.163 | [20] 0.105

CC(C(=O)O)N1C(=O)C(=Cc2cccnc2)SC1=S (stereo unspecified)
inactive: [13] -0.0281 | [14] 0.0107 | [17] 0.0923 | [18] -0.0695

C[C@@](Cc1ccc(O)c(O)c1)(NN)C(=O)O
inactive: [1] 0.0561 | [2] 0.0298 | [13] 0.0574 | [14] 0.0638 | [15] 0.204 | [16] 0.0896 | [3] 0.0627 | [4] 0.0768 | [5] 0.0384 | [6] 0.0316 | [17] 0.0851 | [18] 0.0635 | [19] 0.113 | [20] 0.042 | [7] 0.127 | [8] 0.0372 | [9] 0.109 | [10] 0.129 | [11] 0.131 | [12] 0.096
